Assays:
[1] = biological target: T1, human CTLA-4 on CHO cells (human, UniProt P16410 36-223); test: flow cytometry, CHO/CTLA-4 cells
T1 construct: whole, on cells; also called CHO/CTLA-4
Procedure: (§1) Binding affinity to CD28 was determined using primary human T cells which endogenously express CD28. Binding to PD-L1 was determined using SCC152 cells transduced with human PD-L1. Binding to CTLA-4 was measured using Chinese hamster ovary (CHO) cells stably transduced to express human CTLA-4.
(§2) For staining and analysis by flow cytometry, 75,000 human T cells, SCC152/PD-L1 cells, or CHO/CTLA-4 cells were plated in 96-well round-bottom plates. Cells were spun down and resuspended in staining buffer (PBS (phosphate buffered saline), 1% BSA (bovine serum albumin), 1 mM EDTA, and 0.1% sodium azide) for 20 minutes to block non-specific binding. Afterwards, cells were centrifuged, stain buffer aspirated, and then resuspended in 50 μL of a 1:5 serial dilution of each CD80-Fc candidate variant starting at 100 nM ending at 0.8 nM. Primary staining was performed on ice for 60 minutes, before washing cells in […] staining buffer three times. PE-conjugated anti-human Fc (Jackson ImmunoResearch, USA) was diluted 1:250 in 50 μL staining buffer and added to cells and incubated another 30 minutes at 4° C. Cells were washed two times in 150 μL stain buffer and then fixed in 2% formaldehyde/PBS for 5 minutes at room temperature. Samples were analyzed CytoFLEX LX flow cytometer (Beckman Coulter, USA). Median Fluorescence Intensity (MFI) was calculated for each cell type using the CytExpert software from Beckman Coulter.
(§3) Binding assays were carried out to assess the specificity and affinity of multivalent proteins to cell-expressed CTLA-4, CD28, and PD-L1 counter structures.

[2] = biological target: T2, human CD28 on cells (human, UniProt P10747 19-220); test: flow cytometry, primary human T cells
T2 construct: whole, on cells
Procedure: as §1, §2, §3

[3] = biological target: T2, human CD28 on cells; test: cell-based or functional assay
[4] = biological target: T3, human PD-L1 (human, UniProt Q9NZQ7); test: flow cytometry, SCC152/PD-L1 cells
T3 construct: whole, on cells; also called SCC152/PD-L1 cells

[5] = biological target: T4, rhu PD-L1 (human, UniProt Q9NZQ7 fragment, limits assumed); test: SPR (Biacore), captured CD80-Fc, PD-L1 analyte
T4 construct: also called PD-L1 (SPR analyte)

T1 sequence (P16410 36-223): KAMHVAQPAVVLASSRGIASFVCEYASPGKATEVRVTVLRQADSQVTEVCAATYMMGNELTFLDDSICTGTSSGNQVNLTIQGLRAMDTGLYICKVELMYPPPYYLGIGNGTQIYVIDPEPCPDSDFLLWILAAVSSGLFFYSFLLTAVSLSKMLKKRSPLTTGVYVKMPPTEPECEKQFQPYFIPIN

B1: CD80-Fc-CD80_336 (Fc fusion)
chain: VIHVTKEVKGWATLSCGHNVSVEELAQYRIYWQKEKKMVLTMMSGDLNIWPEYKNRTIFDITNNLSIVILALRPSDEGTYECVVLKYEKDAFKREHLAEVTLSVKADGSGGGGS[omitted - human IgG4 Fc with S228P (EU numbers)]GGGGSGGGGSGGGGSVIHVTKEVKGWATLSCGYNVSVEELAQYRIYWQKEKKMVLTMMSGDLNIWPEYKNRTIFDITNNLSIVILALRPSDEGTYECVVLKYEKDAFKREHLAEVTLSVKAD
notes: Tetravalent after dimerization of the Fc chains; also called multivalent CD80_180 E10G/V11W/T28Y/M47L barbell
Anti-Human Fc (MFI) at 0.8 nM [1]: 187000 MFI
Anti-Human Fc (MFI) at 4 nM [1]: 283000 MFI
Anti-Human Fc (MFI) at 20 nM [1]: 292000 MFI
Anti-Human Fc (MFI) at 100 nM [1]: 284000 MFI
fold change vs WT CD80 @20 nM [1]: 0.35 fold
Anti-Human Fc (MFI) at 0.8 nM [2]: 329 MFI
Anti-Human Fc (MFI) at 4 nM [2]: 496 MFI
Anti-Human Fc (MFI) at 20 nM [2]: 844 MFI
Anti-Human Fc (MFI) at 100 nM [2]: 1470 MFI
fold change vs WT CD80 @20 nM [2]: 4.7 fold
Fold Increase over WT at 50 nM [3]: 5.4 fold
Rel. Luminescence Units (RLU) at 2 nM, K562/OKT3/PD-L1 + Jurkat/IL-2 reporter [3]: 10600 RLU
Rel. Luminescence Units (RLU) at 10 nM, K562/OKT3/PD-L1 + Jurkat/IL-2 reporter [3]: 12400 RLU
Rel. Luminescence Units (RLU) at 50 nM, K562/OKT3/PD-L1 + Jurkat/IL-2 reporter [3]: 13200 RLU

B2: CD80_242-Fc (Fc fusion)
chain: VIHVTKEVKEFATLSCGHNVSVEELAQYRIYWQKEKKMVLTMMSGDLNIWPEYKNRTIFDISNNLSIVILALRPSDEGTYECVVLKYEKDAFKREHLAEVTLSVKADGSGGGGS[omitted - human IgG4 Fc with S228P (EU numbers)]
notes: also called V11F, T28Y, M47L, T62S
Anti-Human Fc (MFI) at 0.8 nM [4]: 963 MFI
Anti-Human Fc (MFI) at 4 nM [4]: 1500 MFI
Anti-Human Fc (MFI) at 20 nM [4]: 1770 MFI
Anti-Human Fc (MFI) at 100 nM [4]: 2500 MFI
fold change vs WT CD80 @20 nM [4]: 2.6 fold

B3: CD80_175-Fc (Fc fusion)
chain: VIHVTKEVKSFATLSCGHNVSVEELAQYRIYWQKEKKMVLTMMSGDLNIWPEYKNRTIFDISNNLSIVILALRPSDEGTYECVVLKYEKDAFKREHLAEVTLSVKADGSGGGGS[omitted - human IgG4 Fc with S228P (EU numbers)]
notes: Variant CD80 IgV-GSGGGGS-human IgG4 Fc (S228P); also called E10S, V11F, T28Y, M47L, T62S
Complex half-life [5]: 0.642 min
koff [5]: 0.018 s⁻¹

B4: CD80_243-Fc (Fc fusion)
chain: VIHVTKEVKEYATLSCGHNVSVEELAQTRIYWQKEKKMVLTMMSGDLNIWPEYKNRTIFDITNNLSIVILGLRPSDEGTYECVVLKREKDAFKREHLAEVTLSVKADGSGGGGS[omitted - human IgG4 Fc with S228P (EU numbers)]
notes: also called V11Y, M47L, A71G, Y87R
Anti-Human Fc (MFI) at 0.8 nM [4]: 960 MFI
Anti-Human Fc (MFI) at 4 nM [4]: 1850 MFI
Anti-Human Fc (MFI) at 20 nM [4]: 5100 MFI
Anti-Human Fc (MFI) at 100 nM [4]: 9480 MFI
fold change vs WT CD80 @20 nM [4]: 7.5 fold

B5: CD80_244-Fc (Fc fusion)
chain: VIHVTKEVKEYATLSCGHNVSVEELAQYRIYWQKEKKMVLTMMSGDLNIWPEYKNRTIFDITNNLSIVILALRPSDEGTYECVVLKREKDAFKREHLAEVTLSVKADGSGGGGS[omitted - human IgG4 Fc with S228P (EU numbers)]
notes: also called V11Y, T28Y, M47L, Y87R
Anti-Human Fc (MFI) at 0.8 nM [4]: 819 MFI
Anti-Human Fc (MFI) at 4 nM [4]: 1370 MFI
Anti-Human Fc (MFI) at 20 nM [4]: 3500 MFI
Anti-Human Fc (MFI) at 100 nM [4]: 6820 MFI
fold change vs WT CD80 @20 nM [4]: 5.1 fold

B6: CD80_240-Fc (Fc fusion)
chain: VIHVTKEVKEYATLSCGHNVSVEELAQYRIYWQKEKKMVLTMMSGEVNIWPEYKNRTIFDITNNLSIMILALRPSDEGTYECVVLKYEKDAFKREHLAEVTLSVKADGSGGGGS[omitted - human IgG4 Fc with S228P (EU numbers)]
notes: Variant CD80 IgV-GSGGGGS-human IgG4 Fc (S228P); also called V11Y, T28Y, D46E, M47V, V68M
Complex half-life [5]: 0.69 min
koff [5]: 0.017 s⁻¹

B7: CD80_197-Fc (Fc fusion)
chain: VIHVTKEVKEYATLSCGHNVSVEELAQTRIYWQKDKKMVLTMMSGDMNIWPEYKNRTIFDITNNLSIVILALRPSDEGTYECVVLKQEKDAFKREHLAEVRLSVKADGSGGGGS[omitted - human IgG4 Fc with S228P (EU numbers)]
notes: Variant CD80 IgV-GSGGGGS-human IgG4 Fc (S228P); also called V11Y, E35D, Y87Q, T101R
Complex half-life [5]: 0.84 min
koff [5]: 0.014 s⁻¹

B8: CD80_241-Fc (Fc fusion)
chain: VIHVTKEVKSFATLSCGHNVSVEELAQYRIYWQKEKKMVLTMMSGDLNIWPEYKNRTIFDITNNLSIVILALRPSDEGTYECVVLKYEKDAFKREHLAEVTLSVKADGSGGGGS[omitted - human IgG4 Fc with S228P (EU numbers)]
notes: Variant CD80 IgV-GSGGGGS-human IgG4 Fc (S228P); also called E10S, V11F, T28Y, M47L
Complex half-life [5]: 0.63 min
koff [5]: 0.018 s⁻¹

B9: CD80_184-Fc (Fc fusion)
chain: VIHVTKEVKEYATLSCGHNVSVEELQQTRIYWQKEKKMVLTMMSGDLNIWPEYKNRTIFDITNNLSIVILGLRPSDEGTYECVVLKREKDAFKREHLAEVTLSVKADGSGGGGS[omitted - human IgG4 Fc with S228P (EU numbers)]
notes: Variant CD80 IgV-GSGGGGS-human IgG4 Fc (S228P); also called V11Y, A26Q, M47L, A71G, Y87R
Complex half-life [5]: 1.61 min
koff [5]: 0.007 s⁻¹

B10: CD80_181-Fc (Fc fusion)
chain: VIHVTKEVSRYATLSCGHNVSVEELAQTRIYWQKEKKMVLTMMSGDLNIWPEYKNRTIFDITNNLSIVILGLRPSDEGTYECVVLKYEKDAFKREHLAEVTLSVKADGSGGGGS[omitted - human IgG4 Fc with S228P (EU numbers)]
notes: Variant CD80 IgV-GSGGGGS-human IgG4 Fc (S228P); also called K9S, E10R, V11Y, M47L, A71G
Complex half-life [5]: 1.67 min
koff [5]: 0.007 s⁻¹

B11: CD80_183-Fc (Fc fusion)
chain: VIHVTKEVKEYATLSCGHNVSVEELAQYRIYWQKEKKMVLTMMSGDLNIWPEYKNRTIFDITNNLSIVILGLRPSDEGTYECVVLKREKDAFKREHLAEVTLSVKADGSGGGGS[omitted - human IgG4 Fc with S228P (EU numbers)]
notes: Variant CD80 IgV-GSGGGGS-human IgG4 Fc (S228P); also called V11Y, T28Y, M47L, A71G, Y87R
Complex half-life [5]: 1.56 min
koff [5]: 0.007 s⁻¹

B12: CD80_171-Fc (Fc fusion)
chain: VIHVTKSVKEVATLSCGINLSVEELKQTRIYWQKEKKMVLTMMSGDLNIWPEYKNRTIFDITNNLSIVILNLRPSDEGTYECVVLKYEKDAFKREHLAEVTLSVKADGSGGGGS[omitted - human IgG4 Fc with S228P (EU numbers)]
notes: Variant CD80 IgV-GSGGGGS-human IgG4 Fc (S228P); also called E7S, H18I, V20L, A26K, M47L, A71N
Complex half-life [5]: 1.23 min
koff [5]: 0.009 s⁻¹

B13: WT CD80 ECD-Fc IgG4 (Fc fusion)
chain: VIHVTKEVKEVATLSCGHNVSVEELAQTRIYWQKEKKMVLTMMSGDMNIWPEYKNRTIFDITNNLSIVILALRPSDEGTYECVVLKYEKDAFKREHLAEVTLSVKADFPTPSISDFEIPTSNIRRIICSTSGGFPEPHLSWLENGEELNAINTTVSQDPETELYAVSSKLDFNMTTNHSFMCLIKYGHLRVNQTFNWNTTKQEHFPDNGSGGGGS[omitted - human IgG4 Fc with S228P (EU numbers)]
notes: also called wild-type CD80 ECD-Fc
Anti-Human Fc (MFI) at 0.8 nM [1]: 217000 MFI
Anti-Human Fc (MFI) at 4 nM [1]: 525000 MFI
Anti-Human Fc (MFI) at 20 nM [1]: 829000 MFI
Anti-Human Fc (MFI) at 100 nM [1]: 856000 MFI
fold change vs WT CD80 @20 nM [1]: 1 fold

B14: WT CD80 ECD Fc IgG4 (Fc fusion)
chain: VIHVTKEVKEVATLSCGHNVSVEELAQTRIYWQKEKKMVLTMMSGDMNIWPEYKNRTIFDITNNLSIVILALRPSDEGTYECVVLKYEKDAFKREHLAEVTLSVKADFPTPSISDFEIPTSNIRRIICSTSGGFPEPHLSWLENGEELNAINTTVSQDPETELYAVSSKLDFNMTTNHSFMCLIKYGHLRVNQTFNWNTTKQEHFPDNGSGGGGS[omitted - human IgG4 Fc with S228P (EU numbers)]
notes: as for B13
Anti-Human Fc (MFI) at 0.8 nM [4]: 644 MFI
Anti-Human Fc (MFI) at 4 nM [4]: 652 MFI
Anti-Human Fc (MFI) at 100 nM [4]: 637 MFI
fold change vs WT CD80 @20 nM [4]: 1 fold
